Measured values taken from the BET-seq Pho4 binding data (Le et al. 2018).
The list shows a part of the results. These are noisy estimates, calculated here from bound and input reads.

What follows are sequences tested against T1, Pho4 (S. cerevisiae) (UniProt P07270) (assay: relative binding free energy (BET-seq); higher = weaker binding). Conditions: reference: library average.
T1 sequence: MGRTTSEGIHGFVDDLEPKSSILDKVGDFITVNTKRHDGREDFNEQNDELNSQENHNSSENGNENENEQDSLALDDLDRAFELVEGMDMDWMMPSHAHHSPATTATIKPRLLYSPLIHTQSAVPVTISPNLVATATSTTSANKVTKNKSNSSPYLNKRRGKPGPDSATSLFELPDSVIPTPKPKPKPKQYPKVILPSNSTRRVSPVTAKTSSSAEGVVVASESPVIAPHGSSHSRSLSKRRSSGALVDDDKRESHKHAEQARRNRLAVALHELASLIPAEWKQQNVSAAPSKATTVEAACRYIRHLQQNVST

Relative binding free energy, 0.2 kcal/mol:
CGTTTCACGTGTCTGT, AGCTACACGTGTGTGA, TGTTGCACGTGATGGC, TGCTTCACGTGTGGTC

Relative binding free energy, -0.24 kcal/mol:
ACTAACACGTGGGGGG

Relative binding free energy, 0.36 kcal/mol:
TTTATCACGTGAAGTC, GGGTTCACGTGTAACT, TGAGTCACGTGACATT, GGACTCACGTGGATGT

Relative binding free energy, -0.17 kcal/mol:
TGAGGCACGTGCTGGC, AGCTGCACGTGCGGGT, ATTACCACGTGGGTAG

Relative binding free energy, 0.05 kcal/mol:
ATGCTCACGTGGGTTT, TTAGACACGTGTATAT, TCGGGCACGTGGACTG, CGGTGCACGTGTATTA, CGTGTCACGTGTCGTG

Relative binding free energy, -0.14 kcal/mol:
TTTAGCACGTGGGATA, TCTAGCACGTGGGTCA, ATAGGCACGTGGAGAT

Relative binding free energy, -0.16 kcal/mol:
TTTACCACGTGGTTAG, ATGGGCACGTGCAGCT, AGTGGCACGTGTCTGT

Relative binding free energy, 0.39 kcal/mol:
GTTTTCACGTGATCTG

Relative binding free energy, 0.18 kcal/mol:
GTCGTCACGTGATTGA, TTCGTCACGTGTAAAT, GTATTCACGTGCGGTT, GTCATCACGTGATGGT, TACGTCACGTGTGTAG

Relative binding free energy, 0.11 kcal/mol:
GGTTTCACGTGCGTAA, GACGTCACGTGTAGGG, AGATGCACGTGGTTTC

Relative binding free energy, 0.32 kcal/mol:
TCAGTCACGTGAGGTT

Relative binding free energy, 0.02 kcal/mol:
GGATGCACGTGTTAAT, TTATACACGTGTGCTG, GTGGGCACGTGCAGAT

Relative binding free energy, -0.26 kcal/mol:
CTGTCCACGTGGGGTG

Relative binding free energy, 0.12 kcal/mol:
TCGATCACGTGTGGTG, GTCAGCACGTGTTGCT, TTTTACACGTGGACAT

Relative binding free energy, 0.27 kcal/mol:
GGGTTCACGTGTCGAA

Relative binding free energy, -0.03 kcal/mol:
GGCCACACGTGGTGGG, AGGGTCACGTGGCTGG, CGGTGCACGTGTGCAG, GTGTGCACGTGTTGTT

Relative binding free energy, 0.01 kcal/mol:
GTATCCACGTGTGGTA, TAGGACACGTGCAGGG, GGTTACACGTGTCATG, TTAAGCACGTGACGTT

Relative binding free energy, 0.28 kcal/mol:
GTATGCACGTGAATTT, GGGGTCACGTGTAATG, ATCATCACGTGAAGTG, GATATCACGTGAGTGT

Relative binding free energy, -0.15 kcal/mol:
TCTAGCACGTGGGGCA

Relative binding free energy, -0.08 kcal/mol:
ATTATCACGTGGTAAG, GTGAACACGTGCGTTG, AGATGCACGTGTGTGT, TGTAACACGTGGAGGA, TAGAGCACGTGTTGTT

Relative binding free energy, 0.41 kcal/mol:
GCGTTCACGTGTCGGA

Relative binding free energy, -0.11 kcal/mol:
GTAGGCACGTGTCCGG, ATGTGCACGTGGGTAA, ATTAGCACGTGGAGTG, ATAAGCACGTGTGGCT

Relative binding free energy, 0.04 kcal/mol:
AGGTGCACGTGAGGAT, CTAGGCACGTGATGGG, CAATGCACGTGTTGTT, GTGGTCACGTGTGCCT, CGGAGCACGTGTGGCT

Relative binding free energy, -0.2 kcal/mol:
GACGGCACGTGGGGTA, GCGTGCACGTGGGCTG

Relative binding free energy, -0.06 kcal/mol:
ATTTGCACGTGGGTTC, GTTGCCACGTGTAGGG, GCAGGCACGTGTGGGA, TCTTGCACGTGGCTTT, TGCGGCACGTGATGCT

Relative binding free energy, 0.47 kcal/mol:
GTTCTCACGTGATAAG

Relative binding free energy, 0.08 kcal/mol:
TCATTCACGTGTGTAG, TCGTGCACGTGTGTAT, GGTGTCACGTGTTCTG, GGTAACACGTGTGTGA, ATGAGCACGTGTGATT, ACGGACACGTGTAGTG, AGGGTCACGTGTTCTA, ATTGGCACGTGAGTGG

Relative binding free energy, 0.16 kcal/mol:
TGTATCACGTGCAGCG, TAGTACACGTGTAATT, AAGGACACGTGATATT, TGCGTCACGTGATGGC, GGTTACACGTGTTTGA, TAGTTCACGTGGGCGA

Relative binding free energy, -0.28 kcal/mol:
GGGTGCACGTGGCGCA

Relative binding free energy, 0.17 kcal/mol:
AGAGTCACGTGGAGTC

Relative binding free energy, 0.06 kcal/mol:
ATTTGCACGTGTATTG, TTTTGCACGTGGAGCA, ATGCTCACGTGTTATT

Relative binding free energy, 0.29 kcal/mol:
TTAATCACGTGATGAT

Relative binding free energy, 0 kcal/mol:
AATGGCACGTGTATGT, GGTGGCACGTGGTGGC, TGCGGCACGTGCGAAG, CAGATCACGTGGTTGG, CTAAACACGTGTGTGT

Relative binding free energy, -0.09 kcal/mol:
TCATGCACGTGTAGTG, GGAAGCACGTGTTTTG

Relative binding free energy, 0.38 kcal/mol:
TGTTTCACGTGTCAGC, TTTGTCACGTGAGCTC

Relative binding free energy, 0.14 kcal/mol:
TAATCCACGTGTTTTG, TGCTTCACGTGGGGGT, ATGGACACGTGTGTAA, TTTGCCACGTGAAGGG, CGGTTCACGTGGCTTG

Relative binding free energy, 0.31 kcal/mol:
AAAAACACGTGAGGTT

Relative binding free energy, 0.37 kcal/mol:
GAGTTCACGTGTTTTC, ATTCTCACGTGTAGAT

Relative binding free energy, -0.21 kcal/mol:
CAGTGCACGTGGGATT

Relative binding free energy, 0.35 kcal/mol:
ACTTTCACGTGATGGA

Relative binding free energy, -0.05 kcal/mol:
TGTTGCACGTGTATAC, GTTAGCACGTGTGTAA, TCAGTCACGTGGGCTG

Relative binding free energy, -0.12 kcal/mol:
GTCTGCACGTGGGTCG, GCGTGCACGTGCGGTT, ATTAGCACGTGCTGAG

Relative binding free energy, 0.34 kcal/mol:
GTGGTCACGTGATCTT, AGATTCACGTGGAGAA

Relative binding free energy, 0.23 kcal/mol:
GTGCGCACGTGTAAGT, GTGGTCACGTGTATAA

Relative binding free energy, 0.03 kcal/mol:
TAGTGCACGTGCACTG, GTGGTCACGTGGGGAA, AGAGACACGTGTAGTG, GATAACACGTGTTGAG, GTTGACACGTGTGCTT, GTTAACACGTGTATTA

Relative binding free energy, -0.02 kcal/mol:
GAAAGCACGTGTTGGA, GGTCGCACGTGTTTTT, ATCGGCACGTGTGAGT, GAACGCACGTGTGGGT, TTTGTCACGTGCCTTG, CTTTGCACGTGGCATT

Relative binding free energy, 0.26 kcal/mol:
TGATTCACGTGTAGTC, CATTTCACGTGGCAGG, ATGTTCACGTGTGAGC, TGTTTCACGTGTCTAT, GGGTACACGTGTGAGA, TGTATCACGTGAACGT

Relative binding free energy, 0.43 kcal/mol:
CTGTTCACGTGATGGT

Relative binding free energy, 0.22 kcal/mol:
GTAATCACGTGTGTTA, GGGGACACGTGTAGGA, GGGTTCACGTGCCTTG, GTAATCACGTGTGATA, TACTTCACGTGTGGGG, TGGTGCACGTGAGGTC

Relative binding free energy, 0.15 kcal/mol:
GTTTACACGTGGTGAA, AAGGACACGTGTTTTT, TGATCCACGTGTAGGT, GGGTACACGTGTGTTG

Relative binding free energy, 0.07 kcal/mol:
GGTGGCACGTGTGTTC, CGGCACACGTGTAGGT, ACGTACACGTGGTGGA, ATCGGCACGTGTGGTT, AGTGACACGTGCGGGA

Relative binding free energy, -0.19 kcal/mol:
TATGACACGTGCGGTG

Relative binding free energy, 0.09 kcal/mol:
GGGTACACGTGTAAAG, TCTTCCACGTGGGTAT, TGGAGCACGTGAAGGA, GTGGTCACGTGTATAT, GTTGGCACGTGTAGAA

Relative binding free energy, -0.37 kcal/mol:
TGTCGCACGTGGGTCA

Relative binding free energy, -0.22 kcal/mol:
AGTGACACGTGGGCTG, ATGGGCACGTGCGTGA, GCTGGCACGTGGGAGT

Relative binding free energy, -0.01 kcal/mol:
AAATGCACGTGGAAGG, AGATACACGTGTGTGA, ACGTGCACGTGAGAGT, TTATACACGTGGTAAT, TGGGTCACGTGCGTGC, TCGTGCACGTGCTGTT, ATTGTCACGTGTGTAC

Relative binding free energy, 0.4 kcal/mol:
TTGTTCACGTGAGGTG

Relative binding free energy, 0.24 kcal/mol:
TGGATCACGTGCTCTG, TAGTACACGTGAGGTT, AAGGTCACGTGAGAGG

Relative binding free energy, -0.23 kcal/mol:
AAGGGCACGTGGTGGG, TGTCCCACGTGTGGTG

Relative binding free energy, 0.25 kcal/mol:
TAAAGCACGTGAGCTT

Relative binding free energy, 0.45 kcal/mol:
GGTTCCACGTGAATTT

Relative binding free energy, 0.19 kcal/mol:
AACAGCACGTGAGTGG, CGGGTCACGTGTTGTT, AAGCTCACGTGATGGG, TTGGTCACGTGTGTGC

Relative binding free energy, -0.18 kcal/mol:
AATAGCACGTGGTCGG, GCCGGCACGTGGGGCT

Relative binding free energy, 0.3 kcal/mol:
GGTCTCACGTGATGTT, AGTTTCACGTGTGAGG, GATTTCACGTGGTTGG, ATGTTCACGTGATTCG, GGTGACACGTGAGTTC

Relative binding free energy, 0.21 kcal/mol:
CTATTCACGTGAAGGG, AGATTCACGTGGTATT, TTTTACACGTGATTAC

Relative binding free energy, -0.32 kcal/mol:
CTTTGCACGTGGGGTC

Relative binding free energy, 0.13 kcal/mol:
GGTATCACGTGGGCTC, AGTTGCACGTGAGTAA, TGAATCACGTGGTACG, TATTACACGTGTATTG, ATCTTCACGTGGGTCG, GTGGACACGTGATCTG, TGGGGCACGTGAGCTG, TATAGCACGTGAGGGA

Relative binding free energy, -0.07 kcal/mol:
GGTAGCACGTGGTTTG, TATTGCACGTGCGGTC, ATTAGCACGTGGCAGT

Relative binding free energy, 0.1 kcal/mol:
AGTGACACGTGTGGCG, AGAGTCACGTGTCGTA, TAATACACGTGAAGTG, TTCGTCACGTGTTGGG, GGGCACACGTGTTTTT, CCTGTCACGTGGTTGG, GGGCACACGTGTAGTG, TTGTGCACGTGTAAAT

Relative binding free energy, -0.04 kcal/mol:
TTGGGCACGTGATTTA, TGTGTCACGTGCACGT, ATTACCACGTGTGTGG

Relative binding free energy, -0.1 kcal/mol:
TGGCACACGTGGGGTT, AAGTGCACGTGGTGTC, TATTGCACGTGCTTAG, ATTGGCACGTGGGATT

Relative binding free energy, -0.13 kcal/mol:
AGGGGCACGTGATGAA, TGAGGCACGTGGTCGG, TGGGCCACGTGTCGGA, TCGGCCACGTGGGATG
